Data as given in PubChem BioAssay AID588342 (National Center for Advancing Translational Sciences (NCATS), 2011).
In all, about 360,000 compounds went through this assay and about 25,000 (6.9%) were called active. This list was built around the results that the source calls inconclusive (neither active nor inactive); the mix of calls is not that of the screen. Calls follow the shape of the dose curve; as a rule, active = well fitted inhibition curve with a large enough effect; inconclusive = small, poorly fitted or top-dose-only effect; inactive = flat fitted curve, though single readings scatter. Potencies beside an inconclusive call are fits to weak or partial responses and may not hold up.

Biological target: Luciferin 4-monooxygenase (Photinus pyralis) (UniProt P08659)
Experiment: qHTS profiling assay for firefly luciferase inhibitor/activator using purifed enzyme and Km concentrations of substrates (counterscreen for miR-21 project); also: nearly all actives have a fitted effect of over 55% in size;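 as to activity change, negative = inhibition: plate controls were vehicle for no effect and reference inhibitor for full effect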
Settings: purified FLuc, luminescence inhibition; series mostly up to 57.5 µM; activity change, negative = inhibition: at the top concentration
Summary of the method: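 Purified P. pyralis luciferase, 10 nM final, with Km-level 10 uM D-luciferin and 10 uM ATP in 50 mM Tris acetate pH 7.5, 10 mM Mg acetate, 0.01% Tween-20, 0.05% BSA; 6-point qHTS titration about 60 µM downward; luminescence read.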
Potency is read from the fitted curve at half-maximal effect; tags tell the direction and shape of the fitted curve.

Sequence of UniProt P08659 (P08659 whole entry, looked up): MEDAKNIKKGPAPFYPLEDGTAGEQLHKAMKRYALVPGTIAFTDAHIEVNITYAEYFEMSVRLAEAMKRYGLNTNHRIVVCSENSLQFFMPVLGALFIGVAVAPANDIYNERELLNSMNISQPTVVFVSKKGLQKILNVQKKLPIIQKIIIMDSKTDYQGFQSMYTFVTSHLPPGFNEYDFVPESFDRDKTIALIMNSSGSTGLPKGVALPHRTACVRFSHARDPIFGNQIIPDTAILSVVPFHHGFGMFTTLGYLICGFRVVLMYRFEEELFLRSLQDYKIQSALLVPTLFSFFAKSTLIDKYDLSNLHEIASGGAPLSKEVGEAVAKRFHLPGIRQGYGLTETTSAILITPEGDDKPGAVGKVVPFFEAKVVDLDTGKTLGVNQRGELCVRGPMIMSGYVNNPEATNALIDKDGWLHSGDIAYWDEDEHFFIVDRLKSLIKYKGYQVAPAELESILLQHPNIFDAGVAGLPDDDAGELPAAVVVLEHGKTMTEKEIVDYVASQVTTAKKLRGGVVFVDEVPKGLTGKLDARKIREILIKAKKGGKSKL

| Compound | Potency | activity change, negative = inhibition |
| --- | --- | --- |
| CCN(Cc1cnn(C)c1)C(=O)c1cc(COc2cc(C)c(Cl)c(C)c2)on1 | inconclusive: 33.8 µM [inhibitor, partial curve, poor fit] | – |
| CC(=O)Nc1ccc(C2=CC(=O)C[C@H](c3ccc(Cl)cc3)C2)cc1 | – | inactive: -11.3% |
| C[n+]1ccn(CC(=O)c2cc(C(C)(C)C)c(O)c(C(C)(C)C)c2)c1 | – | inactive: 3.26% |
| COc1ccc(NC(=O)/C=C/c2cccc(C(F)(F)F)c2)cn1 | inconclusive: 30.1 µM [inhibitor, partial curve, poor fit] | – |
| Cc1nc(C(=O)NCCCO)cc2c1[nH]c1ccccc12 | inconclusive: 37.9 µM [inhibitor, partial curve, poor fit] | – |
| CC(=O)NC(CC(=O)Nc1nc(-c2ccc(N(C)S(C)(=O)=O)cc2)cs1)c1ccccc1 (stereo unspecified) | inconclusive: 19 µM [inhibitor, partial curve, poor fit] | – |
| Nc1cc(N)nc(SCC(=O)Nc2ccccc2N2CCOCC2)n1 | – | inactive: 1.19% |
| CC(/C=C/c1ccc(N(C)C)cc1)=N\N=C(/N)SC1CC(=O)N(c2ccc(C(=O)O)cc2)C1=O (stereo unspecified) | active: 1.07 µM | – |
| Cc1ccc(NC(=O)Cc2nnc(SCC(=O)Nc3nncs3)n2C)cc1 | inconclusive: 26.9 µM [inhibitor, single point] | – |
| Cc1ccc(-c2nc3cc(C)ccc3o2)cc1 | active: 0.169 µM | – |
| Cc1cc(=O)[nH]c(SCC(=O)N2CCC(Cc3ccccc3)CC2)n1 | inconclusive: 26.9 µM [inhibitor, partial curve, poor fit] | – |
| Cn1nc(C(C)(C)C)cc1C(=O)NNC(=O)c1cccc(Cl)c1 | – | inactive: -0.787% |
| O=C(/C=C\Nc1ccc(Cl)cn1)c1ccc(Br)cc1 | inconclusive: 1.69 µM [inhibitor, full curve] | – |
| CC(=O)NC(c1ccco1)c1cc(Cl)c2ccc(N3CCCCC3)nc2c1O (stereo unspecified) | inconclusive: 30.1 µM [inhibitor, partial curve, poor fit] | – |
| NC(=O)COC(=O)/C=C/c1ccc2ccccc2n1 | inconclusive: 26.9 µM [inhibitor, partial curve, poor fit] | – |
| COc1ccc(Cl)cc1C(=O)NNC(=O)c1cccnc1 | inconclusive: 26.9 µM [inhibitor, partial curve, poor fit] | – |
| CCCNC(=O)CN(C1CCCCC1)S(C)(=O)=O | – | inactive: -7.39% |
| COc1cccc(Nc2nnc(SCn3nnc4ccccc4c3=O)s2)c1 | – | inactive: -12.3% |
| CCN1CCN(C(=O)CN(c2ccc(F)cc2)S(=O)(=O)c2ccc(OC)c(OC)c2)CC1 | – | inactive: 1.06% |
| Cc1ccc2nc(C)c(C(=O)N/N=C/c3ccc(N4CCOCC4)cc3)cc2c1 | inconclusive: 2.13 µM [inhibitor, full curve] | – |
| Cc1ccc[n+](CC(=O)Nc2c(Cl)cc(Cl)cc2Cl)c1 | active: 19 µM | – |
| O=C(NCCCO)c1ccc2[nH]c3c(c2c1)CCCC3 | inconclusive: 30.1 µM [inhibitor, single point] | – |
| COc1ccccc1CNc1ncnc2c1c(-c1ccccc1)cn2-c1cccc(C)c1 | – | inactive: -3.5% |
| COc1ccccc1C(=O)Nc1nc2nc(C)c(Cc3ccccc3)c(=O)n2[nH]1 | inconclusive: 12 µM [inhibitor, partial curve] | – |

| Compound | Potency | activity change, negative = inhibition |
| --- | --- | --- |
| CC(=O)c1ccc(NC(=O)Cn2ncc3c(C)n(Cc4ccc(F)cc4)c(C)c3c2=O)cc1 | – | inactive: -13.4% |
| Cc1ccc(-c2nc(CS(=O)CC(=O)NCc3ccco3)c(C)o2)cc1 (stereo unspecified) | – | inactive: -11.6% |
| COc1cccc(Cn2c(CNS(=O)(=O)c3ccc4c(c3)CCCC4)nc3cccnc32)c1 | inconclusive: 30.1 µM [inhibitor, partial curve, poor fit] | – |
| Cc1cc(/C=N/NC(=O)c2cccc(N(C)C)c2)c(C)n1-c1cc(C(=O)O)cc(C(=O)O)c1 | active: 23.9 µM | – |
| CC(C)(C)c1ccc2c(c1)OC(C(=O)N/N=C\c1ccc[nH]1)CO2 (stereo unspecified) | inconclusive: 23.9 µM [inhibitor, single point] | – |
| O=C(CN1C(=O)c2ccccc2S1(=O)=O)N1CCN(c2ccccc2F)CC1 | inconclusive: 23.9 µM [inhibitor, partial curve, poor fit] | – |
| CC(O)c1nc2ccccc2n1CCCOc1ccccc1 (stereo unspecified) | inconclusive: 37.9 µM [inhibitor, single point] | – |
| CCC(=O)NC(=S)Nc1cccc(NC(=O)c2ccccc2Cl)c1 | inconclusive: 23.9 µM [inhibitor, partial curve] | – |
| CCc1ccc2c(c1)-c1ccccc1S(=O)(=O)N2CC(=O)N1CCC(C)CC1 | inconclusive: 15.1 µM [inhibitor, partial curve] | – |
| CN(Cc1nc2c(s1)CCCC2)C(=O)CCc1nnc(-c2ccccc2)o1 | inconclusive: 26.9 µM [inhibitor, partial curve] | – |
| Cc1ccc(OCC(=O)N/N=C/c2ccccc2)c([N+](=O)[O-])c1 | inconclusive: 23.9 µM [inhibitor, single point] | – |
| CSCCC(NC(=O)c1ccco1)C(=O)OCC(=O)Nc1ncc(Cl)c(C)c1Cl (stereo unspecified) | – | inactive: 3.55% |
| COc1c(C)cccc1C(=O)Nc1ccc(CN2CCCCC2)cc1 | inconclusive: 21.3 µM [inhibitor, partial curve] | – |
| Cc1cc(O)c(-c2ccnc3cc(-c4ccccc4)nn23)cc1Cl | – | inactive: -6.12% |
| Cc1ccccc1Cn1ccc(NC(=O)c2onc(C)c2Cl)n1 | inconclusive: 21.3 µM [inhibitor, partial curve] | – |
| COc1ccc(S(=O)(=O)N2CCCCC2)cc1NC(=O)CSc1ncccn1 | inconclusive: 16.9 µM [inhibitor, partial curve] | – |
| CCC(OCC(O)CN1CCCCC1)c1ccccc1 (stereo unspecified) | – | inactive: 0.47% |
| O=C(Cc1cccc2ccccc12)NNC(=O)Nc1ccc(Cl)cc1 | inconclusive: 19 µM [inhibitor, partial curve] | – |
| Cc1ccc(-c2cc(-c3ccc(F)cc3)n[nH]2)c(O)c1 | active: 4.26 µM | – |
| Cc1cccc(N2CCN(C(=O)/C=C/c3ccco3)CC2)c1C | inconclusive: 37.9 µM [inhibitor, partial curve, poor fit] | – |
| S=C1NC(c2ccccc2)=NCN1c1ccc(Cl)cc1 | inconclusive: 15.1 µM [inhibitor, partial curve] | – |
| COc1cc2ccccc2cc1C(=O)Nc1ccc2oc(-c3ccccc3)nc2c1 | – | inactive: -0.23% |
| Cc1ccc(CN=c2c([N+](=O)[O-])nn(-c3ccc(Cl)cc3)n2O)cc1 | inconclusive: 30.1 µM [inhibitor, partial curve, poor fit] | – |
| O=C(Nc1cccc(O)c1)c1cccc(S(=O)(=O)N2CCCCCC2)c1 | inconclusive: 30.1 µM [inhibitor, partial curve, poor fit] | – |

| Compound | Potency | activity change, negative = inhibition |
| --- | --- | --- |
| Cc1ccc(Nc2cc(C(=O)NCc3cccs3)c3ccccc3n2)c(C)c1 | inconclusive: 21.3 µM [inhibitor, single point] | – |
| COC(=O)CCC(=O)Nc1sc(C)c(C)c1C(N)=O | inconclusive: 30.1 µM [inhibitor, partial curve, poor fit] | – |
| CCN(CC(=O)NC(C)(C)C)C(=O)c1ccc2c(c1)S(=O)(=O)c1ccccc1C2=O | – | inactive: -0.281% |
| Cc1ccc(NC(=O)c2ccc3[nH]c(C)cc(=O)c3c2)c(C)c1 | inconclusive: 19 µM [inhibitor, partial curve] | – |
| Cc1cccc(NC(=O)COC(=O)CCc2c[nH]c3ccccc23)c1 | – | inactive: -0.679% |
| CCOC(=O)CC(=O)CSc1nnc2c(n1)[nH]c1ccccc12 | inconclusive: 16.9 µM [inhibitor, partial curve, poor fit] | – |
| CCCc1cnc(N2CCN(C(=O)c3ccccc3)CC2)nc1 | – | inactive: -1.43% |
| COc1ccc(Nc2ncc3c(n2)CCN(C(=O)OC(C)(C)C)C3)cc1 | inconclusive: 21.3 µM [inhibitor, partial curve] | – |
| CCc1nc(SCCO)c2oc3ccccc3c2n1 | inconclusive: 21.3 µM [inhibitor, partial curve] | – |
| O=C(Nc1ccc(Cc2ccncc2)cc1)c1ccc(Br)o1 | inconclusive: 26.9 µM [inhibitor, single point] | – |
| COc1ccc(N2CCN(S(=O)(=O)CCNC(=O)C3CC(=O)N(c4ccccc4)C3)CC2)cc1 (stereo unspecified) | inactive | – |
| CCCOc1ccc(CN(C(=O)c2cc(=O)c3ccc(C)cc3o2)C2CCS(=O)(=O)C2)cc1 (stereo unspecified) | – | inactive: -4.7% |
| Cc1nc2cc(NC(=O)NCc3ccco3)ccc2n1C | inconclusive: 26.9 µM [inhibitor, single point] | – |
| O=C(CSc1nc2[nH]ncc2c(=O)[nH]1)N1CCCCC1 | – | inactive: -0.445% |
| COC(=O)c1ccc(-c2csc(NC(=O)c3c(C)noc3C)n2)cc1 | inconclusive: 19 µM [inhibitor, single point] | – |
| COc1cccc(C(=O)CC2(O)C(=O)Nc3ccc(Cl)cc32)c1 (stereo unspecified) | – | inactive: 2.66% |
| CC1=CC(C)(C)[N+](C)(C)c2ccc(C)cc21 | – | inactive: -2.33% |
| O=C(NC(=S)Nc1ccc([N+](=O)[O-])cc1O)C1CCCCC1 | inconclusive: 19 µM [inhibitor, partial curve] | – |
| Cc1nc2sc3c(O)cc(=O)[nH]c3c2c(C)c1C | inconclusive: 21.3 µM [inhibitor, partial curve, poor fit] | – |
| NC(=S)N/N=C/c1ccc(-c2ccccc2)o1 | inconclusive: 26.9 µM [inhibitor, partial curve] | – |
| S=C(NCCCN1CCOCC1)Nc1ccc(Cl)c(Cl)c1 | – | inactive: -1.93% |
| CC1CCc2c(sc3ncnc(SCC(=O)Nc4ccc(C(=O)O)cc4)c23)C1 (stereo unspecified) | inconclusive: 26.9 µM [inhibitor, single point] | – |
| Cc1cc(C(=O)COC(=O)CCc2nc3ccccc3s2)c(C)n1C | inconclusive: 37.9 µM [inhibitor, partial curve, poor fit] | – |
